Experimental data taken from ChEMBL document CHEMBL4888484, “Replenishing the malaria drug discovery pipeline: Screening and hit evaluation of the MMV Hit Generation Library 1 (HGL1) against asexual blood stage Plasmodium falciparum ,using a nano luciferase reporter read-out” (2022).
Screen size: about 150,000 compounds; about 540 (0.36%) showed an effect of 50% or more. The list shows a part of the results.

What follows are compounds tested on Plasmodium falciparum (assay: Primary screen in NF54 nanoGlo assay, in single point, at 2uM, 72h; a lower Z score goes with more inhibition). Details: timepoint 72 hour.
Type: functional, Erythrocyte

Structure (SMILES) | % Inhibition | Z score
Cc1ccc2[nH]c(C(=O)N3CCC[C@@]4(C3)C(=O)Nc3ccccc34)c(C)c2c1 | 5% | -0.98
Cc1noc(C)c1CC(=O)Nc1cccc2[nH]ccc12 | -3% | 0.46
O=S(=O)(c1ccc(Br)cc1Cl)N(C1CCCC1)C1CC1 | -7% | 0.91
Cc1nn(C)c2nc(N3CCN4CCCC[C@H]4C3)sc12 | -11% | 2.23
C[C@@H](NC(=O)NC1CCc2[nH]cnc2C1)c1ccc(F)cc1 (some centres not stated) | -10% | 1.89
COc1ccccc1N1CCN(C(=O)Cn2ncn3nc(-c4ccccc4)cc3c2=O)CC1 | -4% | 0.81
Cc1c(S(=O)(=O)c2ccc(Cl)cc2)c(N)n(CCN2CCOCC2)c1C | -16% | 2.05
C#CC[C@H](OC(=O)c1cccc2cn[nH]c12)c1ccccn1 | -18% | 2.59
Cc1cnc(NC2CCS(=O)(=O)CC2)nc1N(C)C | 5% | -0.71
CCCN1CCC(CC(=O)N2CCC(Oc3ncccn3)CC2)CC1 | 5% | -0.84
O=C(c1ccc2cc[nH]c2c1)N1CCC[C@@](F)(c2nc(C3CC3)no2)C1 | -2% | 0.28
C=CCN1CC[C@H](N(C)c2nccc(OC)n2)C1=O | 4% | -0.71
CCOC1CC(n2nnnc2N2CC[C@H](OCC)C2)C12CCCC2 (some centres not stated) | -12% | 2.43
CCn1ncc(Br)c1C(=O)N(C)CCc1nccs1 | 13% | -1.49
OC1CCCN(CC2CCC=CCCC2)CC1 (configuration not stated) | -10% | 1.43
Cc1ccccc1CN1C(=O)OC(c2ccc(NC(=O)c3cccs3)cc2)C1C(=O)NCc1ccc(F)cc1 (configuration not stated) | -7% | 1.28
Cc1cc(C)nc(Nc2ccc3cn[nH]c3c2)n1 | -4% | 0.52
CCc1ccc(-c2cc3c(=O)n(Cc4noc(CN5CCN(C)CC5)n4)ccn3n2)cc1 | -9% | 1.23
Cc1nn(C)c(NC(=O)C(=O)c2ccc(Br)cc2)c1C | -7% | 0.87
O=C1NCC(C2CCOC2)C(=O)N1Cc1ccccc1C(F)(F)F (configuration not stated) | 0% | -0.04
CO/C(=N/C(=O)c1ccccc1Cl)NCCN1CCCCC1 | -12% | 1.82
C1CCC2(CC1)CC(NCC1COC1)C2 | 1% | -0.13

Structure (SMILES) | % Inhibition | Z score
Cc1ccc([C@H](CNC(=O)c2cccs2)N2CCCCC2)cc1 | -16% | 2.11
CC(C)c1nnc(Cn2nc(C(F)(F)F)c3cnccc32)o1 | -16% | 2.98
Cc1oc2ncnc(NCCNc3ncccc3C#N)c2c1C | -17% | 2.61
CCn1ccc(C(=O)N2CC(Oc3nc4c(C)cccc4s3)C2)n1 | -7% | 1.02
CN(C)[C@H]1CCN(C(=O)c2cn(Cc3cccc4ccccc34)nn2)C1 | -21% | 1.86
Cc1cc(CN2CCN(C(=O)c3cccc4cc[nH]c34)CC2)on1 | -5% | 0.68
N#Cc1ccc(CO[C@@H](CN2CCN(C(=O)COCc3ccccc3)CC2)c2cccc(N3CCCC3)c2)cc1 | 1% | -0.07
Cc1oc(C(C)C)nc1C(=O)NCCCN1CCOCC1 | -9% | 1.15
CC(C)C[C@H](NC(=O)N1CC(O)C1)c1cccnc1 | -19% | 2.06
CC(C)(C)C(=O)N[C@@H]1c2ccccc2C2(CCNCC2)[C@H]1OCc1cccnc1 | -7% | 0.9
O=S(=O)(c1cnc(N2CCCCC2)c(Cl)c1)N1CCCC1 | -1% | 0.19
C=C(C)COc1ccccc1NC(=O)Cc1cc(C)no1 | 10% | -1.27
O=C(NCCCN1CCCC1=O)c1ccc(Cl)o1 | 2% | -0.36
Cc1n[nH]c(C)c1CC(=O)N[C@H](c1ncc[nH]1)C(C)C | 3% | -0.36
COc1ccc(C2CN(C(=O)c3ccccc3)CC2C(=O)NCc2ccc(F)cc2)cc1 (configuration not stated) | -8% | 1.19
Cn1c(=O)n([C@@H]2CCN(C(=O)COc3ccc(F)cc3)C2)c2ncccc21 | 4% | -0.58
Nc1nc2c(c(C(=O)N3CC(c4ccccn4)C3)n1)CCCC2 | -7% | 1.5
CCN(CC)CCNC(=O)c1cc(N2CCCCCC2)ccn1 | 7% | -1.13
O=C(NC[C@H]1Cc2ccccc21)Nc1cc(C(F)(F)F)c[nH]c1=O | -13% | 1.17
CCCN(C)C(=O)c1coc(CN2CCN(c3ncccn3)CC2)n1 | -7% | 1.43
CCc1onc(C)c1NC(=O)N1CCC(C)(COC)CC1 | -3% | 0.32
COc1ccc([C@H]2CC(=O)Nc3ccsc32)cc1 | -7% | 0.85

Structure (SMILES) | % Inhibition | Z score
CCC(C)(C)[C@@H]1CCCN1C(=O)Cc1c(C)n[nH]c1C | -1% | 0.14
CCc1c(C)sc(NC(=O)[C@@H]2CCCO2)c1C(=O)NC1CCCCC1 | -23% | 2.1
Cc1ccc(OC(=O)c2ccncc2)c(-n2nc3ccccc3n2)c1 | -3% | 0.61
O=C(Nc1ccc2c(n1)CCC2)N1CCC(OC2CCC2)CC1 | -4% | 0.59
CCN(C[C@H]1CCCO1)C(=O)Nc1ccc(-c2cn[nH]c2)cc1 | -13% | 1.84
CC(C)(C)OC(=O)n1ccc2c(C(=O)c3ccccc3)cccc21 | -7% | 0.97
O=C(NCc1cccnc1)c1cc(N2CC[C@@H]3CCCC[C@H]3C2)ccn1 | -9% | 0.87
Cc1c[nH]c(CN2CCC(c3cc(N4CCCC4)ncn3)CC2)c(C)c1=O | -7% | 1.31
Cc1ccc(CNC(=O)Cc2nc3cc(Cl)ccc3[nH]2)s1 | -8% | 1.1
NS(=O)(=O)CC1CCN(C(=O)N[C@H]2C[C@@H]2C(F)(F)F)C1 (some centres not stated) | -10% | 1.49
O=C(Nc1cccc(-c2csnn2)c1)c1ccccc1Cl | -11% | 1.71
O=C(NCc1ccco1)c1ccc(CN2C(=O)CCn3nc(-c4ccccc4)cc32)cc1 | 28% | -3.27
CCc1noc(CS(=O)(=O)Cc2coc(-c3cccs3)n2)n1 | -18% | 1.67
CC(C)(C)OC(=O)NCc1cc(C(=O)NCCc2c[nH]c3ccc(F)cc23)co1 | 1% | -0.18
C[C@]1(C(=O)NCc2nc(-c3ccc(F)cc3)c[nH]2)CC1(Cl)Cl | -12% | 1.17
CCc1cc(C(=O)N2CCCC[C@H]2c2cc[nH]n2)ccc1O | -8% | 0.91
CN(Cc1ccccn1)C(=O)C[C@@H](c1cccc(O)c1)c1ccccc1Cl | -18% | 1.6
c1cc2nonc2cc1CN(CCN1CCCCC1)C[C@H]1CCCN(C2CCCC2)C1 | 0% | -0.05
CCC(Oc1ccccc1C)c1nnc(C2C3Cc4cc(Cl)ccc4C32)o1 (configuration not stated) | 2% | -0.28
CC(C)(O)Cn1nnnc1C=Cc1ccccc1 | -10% | 0.91
C#C[C@H](C)N(C)Cc1c[nH]c(C(=O)OC)c1 | 41% | -5.3
Cc1cc(C(=O)N[C@H]2C[C@@](C)(O)C2)ns1 | 8% | -0.91

Structure (SMILES) | % Inhibition | Z score
O=C1CC(C[C@H]2CCCO2)=NN1c1cccc(F)c1Cl | -6% | 0.81
CC(C)N1CC[C@H](CNC(=O)c2cccc(OCC(F)(F)F)n2)C1 | 2% | -0.39
Cc1noc(C)c1CCCNc1ccc2cc[nH]c2n1 | -2% | 0.32
CCCCNC(=O)Cn1ccc(=O)[nH]c1=O | -7% | 1.1
C#CCN(CC#CC)C(=O)NCc1ccco1 | -8% | 1.12
O=C(Nc1ccccc1)c1c(F)c(F)c2c(c1F)N(Cc1cccnc1)CCS2(=O)=O | -4% | 0.72
Cc1cc2c(NC3CC[S+]([O-])C3)nccn2n1 (configuration not stated) | 3% | -0.38
CC1CN(C(=O)C2CCN(C(=O)CCc3ccsc3)CC2)CC(C)O1 (configuration not stated) | 1% | -0.11
O=C(Nc1cccnc1)C1(O)CCOCC1 | 5% | -0.66
Cc1ccnn1CC(=O)N1CCC2(CC1)C[C@H](c1ccccc1)C(=O)N2C | -4% | 0.67
Cc1ccc(CNS(=O)(=O)c2cc(-c3nc(C)c(C)s3)cs2)cc1 | -22% | 3.24
CC[C@H](C)C(=O)N1CCC2(CCc3nn(CCOC)c(=O)n3CC2)CC1 | -2% | 0.23
N#CCOc1ccc(CNC(=O)COCC(F)(F)F)cc1 | -13% | 2.03
CCc1cc(CN(C)C(=O)c2ccc3sc(C)nc3c2)on1 | -2% | 0.47
N#Cc1ncn(-c2nc(C3CC3)nc3scc(-c4ccccc4)c23)n1 | -6% | 1.07
CO[C@H]1CN(CCOc2ccc(F)cc2)C[C@@H]1O | -12% | 1.7
Cc1csc(CN(C)C(=O)c2c(CCc3ccccc3)n(Cc3ccccn3)c(C)cc2=O)n1 | -5% | 0.61
CCC[C@H](NC(=O)c1cncnc1N)C(=O)N1CCc2sccc2C1 | -5% | 0.72
CC(C)[C@H](Cn1cncn1)NC(=O)NC1CCOCC1 | -10% | 1.49
Cc1nc(-c2cccs2)sc1C(=O)NCCc1ccc(S(N)(=O)=O)cc1 | -20% | 3.72
